Data taken from PubChem BioAssay AID720542 (National Center for Advancing Translational Sciences (NCATS), 2013).
The campaign covered roughly 360,000 compounds. About 740 (0.21%) were called active. Inconclusive means that the source gave no clear call. Such entries were picked first, then a sample of the others. Calls come from the whole dose curve; as a rule, active = well fitted inhibition curve with a large enough effect; inconclusive = small, poorly fitted or top-dose-only effect; inactive = no such curve, though single readings can be large or run the other way. No potency is given beside an inconclusive call; the fits are too rough.

System: Plasmodium falciparum AMA1 (3D7) - RON2 peptide interaction
Assay: qHTS for Inhibitors of AMA1-RON; Towards Development of Antimalarial Drug Lead: Primary Screen; note: nearly all actives have a fitted effect of over 45% in size;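 for activity change, negative = inhibition: 0% = vehicle wells and -100% = peptide control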
Settings: AlphaScreen AMA1-biotinylated RON2 peptide binding; activity change, negative = inhibition: at 58.2 µM (top of the series) unless noted
Summary of the method: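 AMA1 (3D7) with his tag at 25 nM final met compounds first, then biotinylated RON2 peptide at 25 nM; detection used donor plus acceptor beads, 10 µg/mL apiece, read by AlphaScreen after 30 min at room temperature.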
Potency is the fitted concentration of half-maximal effect; tags give direction and shape of the fitted curve.

Row | Compound | Potency | activity change, negative = inhibition
1 | COc1ccc(C[C@](C)(N)C(=O)O)cc1OC | inconclusive [inhibitor, full curve] | –
2 | CCN(CC)c1ccc(CNc2nc3ccccc3n2CCN2CCCCC2)cc1 | inconclusive [inhibitor, partial curve] | –
3 | CCc1nc2ccc(C(=O)NC3CCN(C)CC3)cn2c1N(C)CCC(C)C | inactive | –
4 | CCO[C@H]1OC(C(=O)N2CCN(Cc3ccccc3)CC2)=C[C@@H](c2coc3ccccc3c2=O)[C@@H]1CCCO | inactive | –
5 | O=[N+]([O-])c1ccc(C[n+]2cccc3ccccc32)cc1 | inactive | –
6 | CC(C)C(=O)NC(c1ccco1)c1ccc2cccnc2c1O (stereo unspecified) | active: 20 µM | –
7 | COc1ccc(O)c(C(=O)c2cnn(-c3ccc(Cl)cc3)c2)c1 | inconclusive [inhibitor, partial curve] | –
8 | C=CCc1cccc2cc(C(=O)NCc3cccnc3)c(=O)oc12 | inactive | –
9 | COc1cc(C(C(=O)Nc2c(C)cccc2C)N(C)C(=O)c2ccc(-n3cnnn3)cc2)ccc1O (stereo unspecified) | inactive | –
10 | Nc1cccc2c1C(=O)N(CCOc1ccc(F)cc1)C2=O | inactive | –
11 | O=C1CCN(Cc2ccccc2)CCN1CCOc1ccccc1 | inactive | –
12 | C1=NCCc2c1[nH]c1ccccc21 | inconclusive [inhibitor, full curve, poor fit] | –
13 | Cc1cccc(-n2c(C)nc3cc(C(=O)NCc4ccc5c(c4)OCO5)ccc32)c1 | inconclusive [inhibitor, partial curve] | –
14 | CC(C)N1C/C(=C/c2ccsc2)C(=O)/C(=C/c2ccsc2)C1 | inactive | –
15 | Cc1nc(-c2cccnc2)sc1C(=O)Nc1ccc(Cl)cc1 | inconclusive [inhibitor, single point] | –
16 | COc1ccc(CN2CCN(C(=O)c3ccco3)CC2)c(OC)c1OC | inconclusive [inhibitor, single point] | –
17 | Cc1nn2c(NCCCN(C)C)c3c(nc2c1-c1ccccc1)CCCC3 | inactive | –
18 | COc1ccc(-n2nnnc2C(CCc2ccccc2)N2CCC3(CC2)C(=O)NCN3c2ccccc2)cc1 (stereo unspecified) | inconclusive [inhibitor, partial curve, poor fit] | –
19 | O=S(=O)(Nc1ccccc1N1CCCCC1)c1cccs1 | inconclusive [inhibitor, partial curve] | –
20 | Cc1cccc(NC(=O)C2CCCN(c3ncnc4c3nc3n4CCCCC3)C2)n1 (stereo unspecified) | inactive | –
21 | Cc1ccc(CNC(=O)c2ccc(CS(=O)Cc3ccccc3Cl)o2)cc1 (stereo unspecified) | inactive | –
22 | CCOc1ccc(/C=N/NC(=O)CSc2n[nH]c(=O)[nH]c2=O)cc1OC | inconclusive [inhibitor, single point] | –
23 | CCc1nnc(NC(=O)Cn2nc(-c3ccc(OC)c(OC)c3)ccc2=O)s1 | inconclusive [inhibitor, partial curve] | –
24 | COc1cc(C[C@H](C)[C@H](C)Cc2ccc3c(c2)OCO3)ccc1O | inconclusive [inhibitor, single point] | –

Row | Compound | Potency | activity change, negative = inhibition
25 | CCOC(=O)N1CCN(C(=O)C2CCN(C(=O)c3ccc(C(C)(C)C)cc3)CC2)CC1 | inactive | –
26 | O=C(Nc1ccc(N2CCOCC2)cc1)c1csc([C@H]2C[C@H](O)[C@@H](CO)O2)n1 | inactive | –
27 | CN1CCN(S(=O)(=O)c2cccc(C(=O)NC3CCCc4ccccc43)c2)CC1 (stereo unspecified) | inconclusive [inhibitor, single point] | –
28 | COC(=O)C1=C(C(=O)OC)[C@@H]2N(C)c3ccc(OC)cc3[C@@]23C[C@@H](C(=O)OC)N(C(=O)c2cc(C)oc2C)C3=N1 | inconclusive [inhibitor, single point] | –
29 | O=C(NCCc1ccccc1)C1CCC(=O)N1CCc1ccccc1 (stereo unspecified) | inconclusive [inhibitor, single point] | –
30 | COc1cc(C#CC#CCN2CCCCC2)ccc1O | inconclusive [inhibitor, full curve, poor fit] | –
31 | CCC(=O)NC(NC(=S)Nc1c(C)n(C)n(-c2ccccc2)c1=O)C(Cl)(Cl)Cl (stereo unspecified) | inconclusive [inhibitor, partial curve, poor fit] | –
32 | O=C(CCS(=O)(=O)c1ccccc1Cl)NCc1ccc(F)cc1 | inactive | –
33 | CC(C=NNC(=O)C(=O)NN=CC(C)=Cc1ccccc1)=Cc1ccccc1 | inactive | –
34 | COC(=O)c1ccc2[nH]ccc2c1 | inactive | –
35 | Cn1c2c(c3ccccc31)CCN(CCCCN1CCN(c3ccccc3)CC1)C2=O | inconclusive [inhibitor, partial curve] | –
36 | O=C1CCC(c2ccc(-n3ccnc3)cc2)=NN1 | inactive | –
37 | COc1ccc(Cc2noc(CN3CCCN(Cc4ccc(F)cc4)CC3)n2)cc1OC | inconclusive [inhibitor, single point] | –
38 | COc1ccc(-c2noc(CSc3nnc(CCc4ccccc4)n3-c3ccccc3)n2)cc1OC | inactive | –
39 | COC(=O)c1ccc(NC(=S)Nc2ccccn2)cc1 | inactive | –
40 | COc1ccc(/C=N/NC(=O)CN2CCCc3ccccc32)c(OC)c1 | inconclusive [inhibitor, single point] | –
41 | COc1ccc(N2CCN(C(c3ccccc3)c3nnnn3Cc3ccc(F)cc3)CC2)cc1 (stereo unspecified) | inconclusive [inhibitor, partial curve] | –
42 | CCc1cc(C(c2ccc(OC)c(OC)c2)N2CCOCC2)c(NC(=O)c2ccccc2)s1 (stereo unspecified) | inconclusive [inhibitor, partial curve] | –
43 | COc1ccc(/C=C\C(=O)NCc2ccc3c(c2)cc(C)n3C)cc1OC | inconclusive [inhibitor, single point] | –
44 | Cc1cc(C)nc(N2CCCC(C(=O)Nc3ccc4c(c3)OCCO4)C2)n1 (stereo unspecified) | inconclusive [inhibitor, single point] | –
45 | COc1ccc(N(Cc2ccc(N(C)C)cc2)C(=O)c2ccc(S(C)(=O)=O)cc2)cc1 | inconclusive [inhibitor, single point] | –
46 | CCSc1nnc(-c2cccnc2)n1-c1ccc(Cl)c(C)c1 | inactive | –
47 | CC(C)NC1=C(Cl)C(=O)c2ccccc2C1=O | inconclusive [inhibitor, single point] | –
48 | COc1ccc(N2CC(C(=O)Nc3nnc(SCC(=O)N4CCCC4)s3)CC2=O)cc1 (stereo unspecified) | inconclusive [inhibitor, partial curve] | –

Row | Compound | Potency | activity change, negative = inhibition
49 | COc1ccc(C(=O)Nc2ccc(NC(=O)c3cccs3)cn2)cc1 | inconclusive [inhibitor, partial curve] | –
50 | CC(C)=CCn1c2ccc(NC(=O)Nc3ccc(N(C)C)cc3)cc2c(=O)n1C | inconclusive [inhibitor, single point] | –
51 | O=[N+]([O-])c1ccc(N(CCO)CCO)c2c1no[n+]2[O-] | inconclusive [inhibitor, single point] | –
52 | N#CC1=C(N)S[C@H](C(=O)C23CC4CC(CC(C4)C2)C3)[C@H]1c1ccncc1 | inactive | –
53 | O=C(Nc1ccc(S(=O)(=O)NC2=NCCCCC2)cc1)c1cccc(S(=O)(=O)N2CCOCC2)c1 | inactive | –
54 | O=C(Oc1cc(=O)oc2c1c(=O)n1c3c(cccc23)CC1)c1ccc(F)cc1 | inconclusive [inhibitor, partial curve] | –
55 | COc1ccc(CNCCc2ccc(Cl)cc2)cc1OCc1ccccc1 | inconclusive [inhibitor, partial curve] | –
56 | COc1ccc(C(=O)Nc2nncs2)cc1S(=O)(=O)N1CCOCC1 | inactive | –
57 | CC1(Br)C(Sc2ccccc2[N+](=O)[O-])=Nc2ccccc21 (stereo unspecified) | inconclusive [inhibitor, partial curve] | –
58 | O=[N+]([O-])c1ccc(C(=S)N2CCN(Cc3ccccc3)CC2)cc1 | inconclusive [inhibitor, single point] | –
59 | COc1ccc(S(=O)(=O)N(CC(=O)NC2CCCCC2)c2ccc(F)cc2)cc1 | inactive | –
60 | O=[N+]([O-])c1ccc(Cl)c(/C=N/N2CCN(Cc3ccccc3Cl)CC2)c1 | inconclusive [inhibitor, partial curve] | –
61 | CN1CCN(CC#CCC(O)(c2ccccc2)c2ccccc2)CC1 | – | inconclusive: -37.3% [inhibitor]
62 | CC(CC(=O)c1ccccc1)=NCC(O)CN=C(C)CC(=O)c1ccccc1 (stereo unspecified) | inactive | –
63 | CC1=CC(=NOC(=O)/C=C/c2ccccc2)C=C(C)C1=O | inconclusive [inhibitor, single point] | –
64 | CCc1ccc(OCC(O)CN2CCN(c3ccc(OC)cc3)CC2)cc1 (stereo unspecified) | inconclusive [inhibitor, single point] | –
65 | CCOc1ccccc1CNC(=O)c1ccc2c(c1)N(CC)CCS2 | inconclusive [inhibitor, single point] | –
66 | O=C(CSc1ncc(-c2ccccc2)[nH]1)Nc1ccccc1F | inactive | –
67 | COCCN(C(=O)Cc1ccc(S(=O)(=O)N2CCOCC2)s1)c1c(N)n(CC(C)C)c(=O)[nH]c1=O | inactive | –
68 | CN(C)c1ccc(NC(=S)c2ccc3ccccc3n2)cc1 | inconclusive [inhibitor, single point] | –
69 | Cc1cc(/C=C2\SC(=S)N(Cc3ccco3)C2=O)c(C)n1-c1ccccc1 | inconclusive [inhibitor, partial curve] | –
70 | O=C(OCc1nnc(-c2ccc(Cl)cc2)o1)c1ccc(O)cc1 | inactive | –
71 | CC(NC(=O)[C@H](C)N1C(=O)N2CCc3c([nH]c4ccccc34)[C@@]2(C)C1=O)c1ccccc1 (stereo partly specified) | inconclusive [inhibitor, single point] | –
